Experimental data taken from PubChem BioAssay AID1768 (National Center for Advancing Translational Sciences (NCATS), 2009).
Screen size: about 270,000 compounds; about 620 (0.23%) were called active. Inconclusive means that the source gave no clear call. Such entries were picked first, then a sample of the others. The call rests on the fitted dose curve; in most records, active means well fitted inhibition curve with a large enough effect in the polarisation, with a control signal flat (not every such curve was filed as active); inconclusive means small, poorly fitted or top-dose-only effect, or effect the other way, or a change in a side signal; inactive means no such curve, though single readings can be large or run the other way; the % refers to the polarisation. Potencies beside an inconclusive call are fits to weak or partial responses and may not hold up. A note “side channel” means that the fit belongs to a control or component signal, not to the main read-out.

Target: Menin (Homo sapiens) (UniProt O00255)
Chain of UniProt O00255 (O00255 whole entry, looked up): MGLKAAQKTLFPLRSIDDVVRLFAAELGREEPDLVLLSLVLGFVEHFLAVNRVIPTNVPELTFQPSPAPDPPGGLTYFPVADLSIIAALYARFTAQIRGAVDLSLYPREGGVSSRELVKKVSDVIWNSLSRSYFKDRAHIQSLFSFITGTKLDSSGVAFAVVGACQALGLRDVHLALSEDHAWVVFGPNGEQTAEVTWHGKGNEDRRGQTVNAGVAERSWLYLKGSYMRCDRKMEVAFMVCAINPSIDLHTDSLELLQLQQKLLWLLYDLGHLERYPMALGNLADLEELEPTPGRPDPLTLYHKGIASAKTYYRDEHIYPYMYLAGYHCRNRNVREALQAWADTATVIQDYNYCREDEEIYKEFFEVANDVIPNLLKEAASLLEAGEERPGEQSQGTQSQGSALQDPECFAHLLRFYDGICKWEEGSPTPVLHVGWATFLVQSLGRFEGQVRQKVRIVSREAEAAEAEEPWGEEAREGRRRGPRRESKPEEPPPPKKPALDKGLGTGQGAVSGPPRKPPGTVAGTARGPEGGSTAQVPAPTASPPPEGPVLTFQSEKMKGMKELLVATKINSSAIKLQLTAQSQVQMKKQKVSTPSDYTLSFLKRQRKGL
Experiment: qHTS Assay for Inhibitors Targeting the Menin-MLL Interaction in MLL Related Leukemias: Competition With Texas Red Labeled MLL-derived Mutant Peptide; on FP activity change, negative = inhibition: % of control where 0% means no effect
Conditions: fluorescence polarization; FP activity change, negative = inhibition: at 61.6 µM (top of the series)
Potency means the concentration at half of the fitted maximal effect; tags describe the fitted curve by direction and shape or compound fluorescence and quenching.

| Compound | Potency | FP activity change, negative = inhibition |
| --- | --- | --- |
| COc1ccc(NC(=S)N(CCC(C)C)C2CCN(C(C)=O)CC2)cc1 | inconclusive: 1.26 µM [inhibitor, partial curve] | – |
| CCN(CC)c1ccc(NC(=O)c2cc3ccccc3o2)c(C)c1 | – | inactive: 0.0525% |
| O=[N+]([O-])c1cc(N=Nc2ccc3ccccc3c2)ccc1O | inconclusive: 14.1 µM [quencher, side channel, partial curve] | – |
| CCOC(=O)C1(CCOc2ccccc2)CCN(Cc2ccc3nonc3c2)CC1 | inconclusive: 0.708 µM [fluorescent, side channel, full curve, poor fit] | – |
| Nc1c(N2CCCC2)cc(Cl)c2nonc12 | inconclusive: 14.1 µM [quencher, side channel, partial curve] | – |
| O=C(CCCCCCCCCCCCC1CCCC1)Nc1ccc(S(=O)(=O)c2ccc(NC(=O)CCCCCCCCCCCCC3CCCC3)cc2)cc1 | inconclusive: 39.8 µM [fluorescent, single point] | – |
| O=c1oc2ccccc2cc1-c1csc(NN=C2CCCC2)n1 | inconclusive: 35.5 µM [quencher, side channel, single point] | – |
| CCOC(=O)C1=C(C)N=c2s/c(=C/c3cccc(OCC(=O)O)c3)c(=O)n2C1c1ccc(F)cc1 (stereo unspecified) | inconclusive: 28.2 µM [quencher, side channel, single point] | – |
| Cc1c(Cl)cccc1NS(=O)(=O)c1ccc2c(c1)C1C=CCC1C(c1ccc(C(=O)O)cc1)N2 (stereo unspecified) | inconclusive: 11.2 µM [quencher, side channel, partial curve] | – |
| CCc1cccc(C)c1N1C(=O)CN(Cc2ccccc2)C1=S | – | inactive: 32.1% |
| O=C(Nc1ccc(C#Cc2ccccc2)cc1)C1CC1 | inconclusive: 39.8 µM [inhibitor, single point] | – |
| Cc1ccnc(Nc2nc(-c3ccc(Cl)cc3)cs2)c1 | inconclusive: 44.7 µM [quencher, side channel, partial curve, poor fit] | – |
| COc1ccc([N+](=O)[O-])cc1NS(=O)(=O)c1ccc(Cl)c(C(=O)Nc2sc3c(c2C#N)CCCCC3)c1 | inconclusive: 31.6 µM [quencher, side channel, single point] | – |
| O=C(O)c1ccccc1NSc1ccccc1[N+](=O)[O-] | inconclusive: 35.5 µM [quencher, side channel, single point] | – |
| Clc1ccc(-c2cnc(Oc3ccccc3)nc2)cc1 | inconclusive: 25.1 µM [fluorescent, side channel, single point] | – |
| COc1ccc(/C=N/Nc2ccc([N+](=O)[O-])cc2)cc1O | inconclusive: 14.1 µM [quencher, side channel, partial curve] | – |
